This passage reports binding signal results from publication PMC4081100.

The list shows a part of the results, in another mix than the full data. For some of these results: At the low end of the ranking the order means little. The list shows a part of the results. For some of these results: The exact form of the protein is not confirmed.

Common to all, as to assay: universal protein binding microarray (PBM)
What all share (settings): transcription factors of Arabidopsis thaliana; high values mean tight binding; most listed sequences are background and not binding sites; double strand, one strand shown

In assay [1] the target is T1, GST-ANAC092(1-176) (UniProt Q9FKA0).
T1 sequence: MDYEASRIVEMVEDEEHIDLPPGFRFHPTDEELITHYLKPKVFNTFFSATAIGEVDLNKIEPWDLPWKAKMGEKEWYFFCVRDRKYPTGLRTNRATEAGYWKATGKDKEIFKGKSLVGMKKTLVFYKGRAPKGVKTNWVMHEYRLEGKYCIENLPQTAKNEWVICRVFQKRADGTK

For assay [2], the target named is GST-NTL6(1-168) (UniProt Q9SCK6).
Assay [3] deals with T2, GST-ANAC019 NAC domain (UniProt Q9C932).
T2 sequence: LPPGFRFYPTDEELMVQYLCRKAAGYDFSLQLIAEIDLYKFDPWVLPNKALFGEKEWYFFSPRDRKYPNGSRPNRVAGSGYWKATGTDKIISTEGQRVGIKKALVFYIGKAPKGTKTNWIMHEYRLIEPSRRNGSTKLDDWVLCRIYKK

In assay [4] the target is T3, GST-ATAF1 NAC domain (UniProt Q39013).
T3 sequence: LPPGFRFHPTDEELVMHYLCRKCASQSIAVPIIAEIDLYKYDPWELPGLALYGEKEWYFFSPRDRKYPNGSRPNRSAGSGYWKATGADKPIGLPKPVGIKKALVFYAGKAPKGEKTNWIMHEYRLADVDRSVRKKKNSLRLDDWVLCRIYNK

The target in assay [5] is T4, GST-ANAC092(1-285) full length (UniProt Q9FKA0).
T4 sequence: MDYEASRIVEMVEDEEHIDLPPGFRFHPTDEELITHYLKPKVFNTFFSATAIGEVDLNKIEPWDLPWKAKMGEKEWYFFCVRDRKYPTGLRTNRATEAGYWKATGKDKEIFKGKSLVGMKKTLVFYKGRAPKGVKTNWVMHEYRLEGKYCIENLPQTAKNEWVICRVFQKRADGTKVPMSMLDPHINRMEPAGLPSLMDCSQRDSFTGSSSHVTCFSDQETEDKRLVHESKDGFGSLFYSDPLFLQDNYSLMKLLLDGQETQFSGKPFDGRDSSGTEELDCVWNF

Assay [6] addresses T5, GST-NST2(1-184) (UniProt Q9M274).
T5 sequence: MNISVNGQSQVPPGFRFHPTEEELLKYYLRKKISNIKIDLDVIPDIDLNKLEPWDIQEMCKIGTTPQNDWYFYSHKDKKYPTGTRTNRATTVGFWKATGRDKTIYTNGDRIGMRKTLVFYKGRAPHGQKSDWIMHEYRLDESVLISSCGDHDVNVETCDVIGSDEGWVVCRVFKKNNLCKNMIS

Assay [7] deals with T6, GST-NTL8 NAC domain (UniProt Q9XIN7).
T6 sequence: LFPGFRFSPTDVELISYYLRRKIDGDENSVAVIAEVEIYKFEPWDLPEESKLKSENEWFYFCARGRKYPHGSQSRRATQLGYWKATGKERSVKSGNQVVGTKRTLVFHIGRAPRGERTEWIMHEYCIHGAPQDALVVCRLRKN

The target in assay [8] is T7, GST-SND1(1-203) (UniProt Q9LPI7).
T7 sequence: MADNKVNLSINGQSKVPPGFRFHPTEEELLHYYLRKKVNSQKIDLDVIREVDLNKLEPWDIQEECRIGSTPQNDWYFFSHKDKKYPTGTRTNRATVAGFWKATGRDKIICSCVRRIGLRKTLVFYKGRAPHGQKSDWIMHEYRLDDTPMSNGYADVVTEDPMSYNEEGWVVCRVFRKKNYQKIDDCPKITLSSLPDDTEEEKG

Assay [9] addresses T8, GST-VND3 NAC domain (UniProt Q9FH59).
T8 sequence: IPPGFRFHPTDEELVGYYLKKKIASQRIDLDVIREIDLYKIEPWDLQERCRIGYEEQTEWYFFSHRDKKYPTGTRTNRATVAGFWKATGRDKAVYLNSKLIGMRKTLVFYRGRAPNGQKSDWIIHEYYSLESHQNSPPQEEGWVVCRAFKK

Assay [10] has as its target T9, GST-VOZ2 (Arabidopsis thaliana) (UniProt Q9SLB9).
T9 sequence: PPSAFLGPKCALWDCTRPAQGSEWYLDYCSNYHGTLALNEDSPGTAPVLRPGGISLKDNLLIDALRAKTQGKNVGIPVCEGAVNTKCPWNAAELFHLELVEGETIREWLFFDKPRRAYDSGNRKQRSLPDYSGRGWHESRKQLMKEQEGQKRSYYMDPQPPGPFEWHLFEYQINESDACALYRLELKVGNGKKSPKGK

Assay [11] has as its target T10, GST-ANAC055(1-171) (UniProt Q9LDY8).
T10 sequence: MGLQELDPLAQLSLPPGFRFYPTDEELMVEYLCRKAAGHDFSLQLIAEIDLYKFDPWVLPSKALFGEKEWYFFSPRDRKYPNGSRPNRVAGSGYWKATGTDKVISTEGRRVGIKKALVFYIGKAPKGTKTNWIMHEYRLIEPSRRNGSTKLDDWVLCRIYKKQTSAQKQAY

In assay [12] the target is T11, GST-NAP(1-166) (UniProt O49255).
T11 sequence: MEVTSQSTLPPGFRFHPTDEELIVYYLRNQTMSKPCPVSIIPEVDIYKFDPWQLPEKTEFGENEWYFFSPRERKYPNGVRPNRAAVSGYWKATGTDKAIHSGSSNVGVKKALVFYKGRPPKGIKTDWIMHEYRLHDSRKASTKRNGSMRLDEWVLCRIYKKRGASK

The target in assay [13] is T12, GST-VND7 NAC domain (UniProt Q9C8W9).
T12 sequence: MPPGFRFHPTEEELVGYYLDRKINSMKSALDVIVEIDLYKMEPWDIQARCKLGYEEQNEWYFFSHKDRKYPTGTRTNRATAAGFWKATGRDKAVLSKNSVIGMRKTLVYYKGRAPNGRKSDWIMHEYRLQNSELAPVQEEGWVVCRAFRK

The target of assay [14] is GST-WRKY1(266-371) (UniProt Q9SI37).

For AGTCTGAC, the binding signal in assay [1] was 0.00541 E-score; in [2], -0.0265 E-score; in [3] it was 0.0699 E-score; in assay [4], 0.0248 E-score; in [5], -0.0398 E-score; in assay [6] it was -0.153 E-score. Moreover, the binding signal in assay [7] is -0.0709 E-score; in [8], -0.121 E-score; in assay [9], 0.0212 E-score; in [10], -0.146 E-score.
As for CGTATACG, the binding signal stood at 0.0497 E-score in [2]; 0.0435 E-score in assay [7]; 0.0859 E-score in assay [8]; 0.321 E-score in assay [9]; 0.0617 E-score in [10].
CCAGTCAA: the binding signal in assay [2] is -0.0773 E-score; in assay [11], 0.000265 E-score; in assay [4], 0.0414 E-score; in assay [5], -0.0494 E-score; in [12], -0.024 E-score; in [6], -0.0404 E-score. Also, the binding signal in [7] was -0.00734 E-score; in assay [8] it was 0.0251 E-score; in assay [9], -0.0476 E-score; in assay [13], -0.0766 E-score; in [10] it was -0.0533 E-score.
ATTGACTG: the binding signal in [1] was 0.0112 E-score; in assay [3], 0.0091 E-score; in assay [11], 0.0264 E-score; in [5] it was 0.0365 E-score; in [12], 0.0235 E-score; in assay [7], 0.0613 E-score. The binding signal in [8] is -0.0023 E-score; in assay [9], -0.0325 E-score; in assay [10] it was 0.00754 E-score; in [14], 0.465 E-score.
Turning to GACCGGAA, the binding signal in [2] is -0.0877 E-score; in assay [11], 0.0745 E-score; in [4], 0.0148 E-score; in [5] it was -0.0284 E-score; in [12], 0.0437 E-score; in assay [6], -0.0596 E-score. Besides, the figures for the binding signal in assay [8], in assay [9] and in [10] were -0.0495 E-score, 0.0174 E-score and 0.00545 E-score, respectively.
Take GCAAGTCA: the binding signal is 0.0738 E-score in assay [2]; -0.0377 E-score in assay [3]; 0.0179 E-score in [11]; 0.0771 E-score in [4]; 0.0339 E-score in assay [12]; 0.0445 E-score in assay [7]. Besides, the binding signal in assay [8] worked out at 0.175 E-score; in [9] it was 0.115 E-score; in assay [10], 0.00891 E-score.
Take CTAGTCAA: the binding signal in assay [1] was 0.0129 E-score; in [2], -0.0941 E-score; in assay [3] it was 0.0699 E-score; in assay [4], 0.148 E-score; in assay [12] it was -0.0462 E-score; in [6], 0.026 E-score. Besides, the binding signal was 0.0822 E-score in assay [7]; -0.00705 E-score in assay [8]; 0.166 E-score in [9]; -0.058 E-score in [10]; 0.474 E-score in [14].
As to AATTACGT, the binding signal in [2] came to 0.142 E-score; in assay [7] it was 0.205 E-score; in [8], 0.42 E-score; in [9] it was 0.47 E-score; in assay [10], 0.218 E-score.
For TGAAGCAA, the binding signal was 0.389 E-score in [2]; 0.0399 E-score in assay [11]; 0.0385 E-score in [4]; -0.0591 E-score in assay [12]; 0.447 E-score in assay [8]; 0.0492 E-score in [9]. For the same sequence, the results for the binding signal in assay [10] and in assay [14] were 0.0529 E-score and -0.0695 E-score, respectively.
With AGGTCAAA, the binding signal was -0.00598 E-score in assay [1]; 0.0901 E-score in [2]; -0.0413 E-score in assay [3]; -0.0869 E-score in assay [5]; -0.0535 E-score in [12]; -0.00307 E-score in assay [6]. Also, the binding signal is -0.000155 E-score in [7], -0.0327 E-score in assay [8], 0.062 E-score in [9] and 0.0405 E-score in assay [10].
On to CCACGCCA, for which the binding signal is 0.372 E-score in assay [1]; -0.0164 E-score in assay [2]; 0.0852 E-score in [3]; -0.0167 E-score in assay [7]; 0.141 E-score in assay [8]; 0.0202 E-score in assay [9]. For the same sequence, the binding signal is 0.0677 E-score in [10] and -0.0535 E-score in assay [14].
Turning to AAGTTGAC, the binding signal in assay [1] is -0.0143 E-score; in [2] it was -0.084 E-score; in assay [3] it was 0.0109 E-score; in [5], -0.0303 E-score; in [12] it was -0.00573 E-score; in assay [6], -0.0363 E-score. Further, the binding signal in assay [7] is -0.0237 E-score; in assay [8], -0.0208 E-score; in [9], -0.0707 E-score; in assay [10] it was 0.0963 E-score.
On to AGGGTAAA, for which the binding signal in assay [2] is 0.0852 E-score; in assay [3] it was -0.0249 E-score; in assay [4], -0.0164 E-score; in [7], 0.429 E-score; in assay [8] it was 0.153 E-score; in assay [9], -0.0758 E-score. Also, the binding signal turned out to be 0.0368 E-score in assay [10] and 0.0129 E-score in assay [14].
Regarding AAGTCTTC, the binding signal in assay [1] is -0.0217 E-score; in assay [11], 0.0748 E-score; in assay [5], -0.00808 E-score; in assay [12] it was 0.0208 E-score; in [6] it was 0.0164 E-score; in assay [7] it was 0.0771 E-score. The binding signal in assay [8] is -0.0646 E-score; in assay [9], 0.123 E-score; in assay [10], -0.032 E-score; in [14], 0.429 E-score.
As to AAGGTCAG, the binding signal in assay [1] was -0.0381 E-score; in assay [2], 0.0225 E-score; in assay [3], -0.00226 E-score; in assay [11], -0.0781 E-score; in assay [4], 0.0646 E-score; in assay [5] it was -0.0705 E-score. In addition, the binding signal is -0.0648 E-score in assay [12]; -0.0513 E-score in assay [6]; -0.108 E-score in assay [8]; -0.061 E-score in [13]; 0.0345 E-score in [10]; 0.425 E-score in [14].
